In publication PMC8119438:
These are yes or no findings as the source states them, for the method shown. Some binding calls cover weakened binding; strength is not graded here. Tags and fused reporters may be left off the sequences shown.

Key:
Test in all cases: two-hybrid; yeast with pGAD-C1 and pGBD-C1 constructs of RILP, RILP-L1 or RILP-L2; growth at 30 °C on SC-AHLW selection medium for one week (Supplementary figure S1)
[1] = target: T1, RILP-L2 (yeast two-hybrid fusions) (mouse) (UniProt Q99LE1)
T1 sequence: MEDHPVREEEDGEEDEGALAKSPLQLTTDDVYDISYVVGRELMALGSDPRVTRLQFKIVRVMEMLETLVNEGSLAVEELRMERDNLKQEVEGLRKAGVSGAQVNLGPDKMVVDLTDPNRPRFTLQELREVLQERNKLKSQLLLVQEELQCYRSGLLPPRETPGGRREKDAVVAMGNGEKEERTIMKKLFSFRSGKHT

[2] = target: RILP (yeast two-hybrid fusions) (mouse) (UniProt Q5ND29)
[3] = target: T2, RILP-L1 (yeast two-hybrid fusions) (mouse) (UniProt Q9JJC6)
T2 sequence: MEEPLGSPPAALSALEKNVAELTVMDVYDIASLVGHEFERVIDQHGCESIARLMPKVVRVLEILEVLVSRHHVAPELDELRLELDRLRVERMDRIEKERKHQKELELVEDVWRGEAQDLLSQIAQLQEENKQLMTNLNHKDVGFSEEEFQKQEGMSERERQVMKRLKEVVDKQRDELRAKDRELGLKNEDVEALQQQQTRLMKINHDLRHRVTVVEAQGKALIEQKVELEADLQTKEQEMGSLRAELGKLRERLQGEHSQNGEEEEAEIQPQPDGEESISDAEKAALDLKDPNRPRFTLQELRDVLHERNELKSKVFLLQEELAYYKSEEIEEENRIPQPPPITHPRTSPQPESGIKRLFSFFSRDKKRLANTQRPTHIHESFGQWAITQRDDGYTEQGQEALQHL

B1: RILP (yeast two-hybrid fusions) (protein, UniProt Q5ND29 1-369)
chain: MEPRRAAPRLPSQASSSVGAGSAAELVYHLAGALGTELQGLARRFGPDAAAGLVPLVVRALELLEKAAVGPAPDSLQVSAQQAEVELRRLREENQRLRQELGSGPQEERALLRQLKEVTDRQRDELRAHNRDLQRRSQETEALQEQLQRLLLINSELRHKLAAVQTQLRAAQDRERERQIAQDGSSQLAKEQSLEPDAATSDDPVDTQKQPGNLPEAVQCGFSREELKQILQERNELKANVFLLKEELAYFQRELLTDHRVPGLLLEAMKVAVKKQRRKIKAKMLGTPEEAESSEDEDGSWLLLSNDKEDVPLVPESRIQNFFGLWYRGETEAPEAETSNPASSSLQKGEETPQQPHLQPVNSPPAPNS
binding [1]: no binding | binding [2]: binds | binding [3]: no binding
